Data: PMC6919601, “Identification of Plasmodium dipeptidyl aminopeptidase allosteric inhibitors by high throughput screening” (PLoS ONE, 2019)
“And” between values parts separate entries of the source, which are not always exact repeats. Equal values may be shown once. Hit rate of the full screen: of about 110,000 compounds, about 230 (0.21%) showed an effect of 50% or more. The list shows a part of the results.

target: DPAP1 (Plasmodium falciparum, UniProt Q8IIJ9); test: primary screen, percent inhibition; read by cleavage of a fluorogenic dipeptide substrate; higher = more effect of the substance; set-up: species or system P. falciparum D10 trophozoite lysates; single well
Sequence (Q8IIJ9 whole entry, looked up): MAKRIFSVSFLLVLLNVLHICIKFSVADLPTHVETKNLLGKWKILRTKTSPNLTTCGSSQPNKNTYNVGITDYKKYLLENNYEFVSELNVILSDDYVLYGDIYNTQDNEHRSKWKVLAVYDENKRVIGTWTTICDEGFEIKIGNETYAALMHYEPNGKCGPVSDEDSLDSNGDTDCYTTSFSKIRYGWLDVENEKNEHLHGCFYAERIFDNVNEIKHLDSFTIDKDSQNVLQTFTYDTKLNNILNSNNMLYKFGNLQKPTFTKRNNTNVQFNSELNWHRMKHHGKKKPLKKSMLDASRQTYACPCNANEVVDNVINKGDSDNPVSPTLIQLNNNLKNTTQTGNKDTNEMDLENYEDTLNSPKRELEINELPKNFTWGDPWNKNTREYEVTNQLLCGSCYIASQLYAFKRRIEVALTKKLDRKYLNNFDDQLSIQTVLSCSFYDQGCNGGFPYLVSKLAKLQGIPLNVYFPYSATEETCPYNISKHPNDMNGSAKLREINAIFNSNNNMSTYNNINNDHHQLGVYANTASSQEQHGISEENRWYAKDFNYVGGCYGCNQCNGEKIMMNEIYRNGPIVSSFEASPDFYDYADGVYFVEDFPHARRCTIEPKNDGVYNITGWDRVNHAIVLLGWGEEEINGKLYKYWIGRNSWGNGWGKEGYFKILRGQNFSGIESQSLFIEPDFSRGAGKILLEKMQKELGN
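Further: 30 min substrate incubation versus DMSO and 10 µM JCP410 controls.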

| SMILES | % Inhibition @ 10 uM |
| --- | --- |
| O=C(c1ccc(F)cc1)N1CCCCC(S(=O)(=O)c2ccccc2)C1=O (centres unmarked) | 2.22% |
| OCCCNc1ncnc2c1oc1ccccc12 | -5.41% |
| O=C1CSC2N1CCCC21CCCCC1 (centres unmarked) | 2.58% |
| Cc1cc(OC(C)C(=O)NC2CCS(=O)(=O)C2)cc(C)c1Cl (centres unmarked) | -1.89% |
| CCN1CCN(C(=O)C(C)Oc2ccccc2Cl)CC1 (centres unmarked) | -0.884% and -2.46% |
| COc1ccc(/C=N/c2nc3c(s2)CCc2cc(OC)ccc2-3)cc1 | 3.16% |
| CNC(=O)c1[nH]cnc1C(=O)Nc1cccc(OC)c1 | -4.68% |
| C=CCNC(=O)CCCc1nc(-c2ccc(OC)cc2)no1 | -2.92% |
| CN(C)CCN1C(=O)C(O)=C(C(=O)c2ccccc2)C1c1ccc(N(C)C)cc1 (centres unmarked) | -4.82% |
| Cn1c2ccccc2n2c(=O)c(Cl)c(-c3ccccc3)c(C#N)c12 | -1.98% |
| N#CCNC(=O)[C@H](CC1=CCCC1)NC(=O)c1ccccc1 | -1.83% |
| O=C(CSc1nnc(-c2cccc(F)c2)n1-c1ccccc1)NCc1ccco1 | 6.91% |
| COc1ccc(S(=O)(=O)Nc2cccc(C(C)=O)c2)cc1 | -1.92% |
| COC(=O)c1sc2nc3c(c(-c4ccc(C)cc4)c2c1N)CCCC3 | -4.16% |
| CCOc1ccccc1CN1CCN(c2ccc(F)cc2)CC1 | -7.33% |
| COc1ccccc1/C=C/C1=NN(c2ccc(Cl)cc2)C(c2ccccc2OC)C1 (centres unmarked) | -1.59% |
| CCN(CC)S(=O)(=O)c1cccc(C(=O)Nc2cccc([N+](=O)[O-])c2)c1 | 1.63% |
| O=C1c2ccccc2-c2nn(C(=O)Cc3ccccc3)c3cccc1c23 | -0.958% |
| CCS(=O)(=O)c1nc(S(=O)(=O)c2ccc(Cl)cc2)c(NCc2ccccc2)s1 | -0.522% |
| COC(=O)c1ccc2c(c1)[N+](C)=C(/C=C/c1ccc(OC)cc1OC)C2(C)C | -1.11% |
| CCOc1ccccc1NC(=O)CN(c1ccccc1)S(=O)(=O)c1ccc(C)cc1 | 4.11% |
| Cc1ccc(-c2nn(CC(=O)NCCc3ccccc3)c(=O)c3ccccc23)cc1 | -3.21% |
| Cn1nc(C(F)(F)F)cc1C(=O)N1CCc2ccccc21 | 29.1% |
| O=S(=O)(NCc1ccccn1)c1ccc(Oc2ccccc2Cl)cc1 | 5.31% |
| Cc1ccc(OCCCCn2ccnc2)cc1C | -3.42% |
| O=C(CN1Cc2ccccc2C1=O)Nc1cccnc1 | 3.37% |

| SMILES | % Inhibition @ 10 uM |
| --- | --- |
| O=C(COc1ccccc1)Nc1cccc(NC(=O)Cc2ccccc2)c1 | -4.84% |
| COc1ccc(CNc2ccccc2)c2ccccc12 | 6.52% |
| COc1ccc(CCNc2oc(/C=C/c3cccs3)nc2C#N)cc1OC | -3.49% |
| CC(C)(C)c1ccc(OCC(=O)O)c(C(C)(C)C)c1 | -2.28% |
| Cc1ccc(C2C(C#N)=C(N)Oc3c2ccc2cccnc32)cc1 (centres unmarked) | -0.693% |
| COC(=O)c1cc2c(=O)n3ccccc3nc2n(Cc2ccco2)c1=N | 3.6% |
| CCOC(=O)N1CCN(Cc2ccccc2F)CC1 | -2.34% |
| COc1cccc(CNCc2cccnc2)c1OCc1ccccc1F | 0.755% |
| CCOC(=O)N1CCN(C(=O)CSCc2nc(-c3ccccc3F)oc2C)CC1 | 2.16% |
| CC(C)(C)C1CCc2c(sc(NC(=O)CCC(=O)O)c2C#N)C1 (centres unmarked) | 1.01% |
| COc1ccc(CN2CCN(c3cccc(C)c3C)CC2)cc1Br | -5.68% |
| C=CCN(CC=C)S(=O)(=O)c1ccc(F)cc1 | -1.05% |
| CCN(C(=O)c1ccc(Br)o1)c1ccccc1 | 3.53% |
| CC(C)=C1C2CCC1C1C(=O)N(c3nc(-c4ccc(Cl)cc4)c(C)s3)C(=O)C21 (centres unmarked) | 7.04% |
| c1ccc(C2CCC(Nc3ccc4c[nH]nc4c3)CC2)cc1 (centres unmarked) | -2.34% |
| CC1CCCCN1S(=O)(=O)c1ccc(NC(=O)COc2ccc(F)cc2)cc1 (centres unmarked) | 10.9% |
| Cc1nc2cc(-c3ccccc3)nn2c(C)c1CC(=O)NC(C)c1cccs1 (centres unmarked) | -4.24% |
| Cc1ccc(S(=O)(=O)Nc2nc3ccccc3nc2Nc2ccc(O)cc2)cc1 | 1.42% |
| COC(=O)C1=CN(Cc2ccc(Cl)cc2)C=C(C(=O)OC)C1c1ccccc1Cl | 4.99% |
| COC(=O)Nc1ccc2c(c1)N(C(=O)CCN1CCOCC1)c1ccccc1C=C2 | 2.55% |
| COc1cccc(C2C(C#N)=C(N)Oc3c2c(=O)oc2ccccc32)c1OC (centres unmarked) | 0.0345% |
| O=C(NCc1ccc(Cl)cc1)C(=O)NC1CCCC1 | 1.29% |
| COc1ccc(-n2nnc(-c3nc(-c4ccccn4)no3)c2N)cc1 | 2.19% |
| Cn1c(-c2cccs2)nc2cnccc21 | 0.962% |
| CCOC(=O)c1sc2nc(C)ccc2c1N | 2.7% |
| Nc1c(C(=O)Nc2ccccc2C(=O)O)sc2nc3c(cc12)CCC3 | -0.992% |

| SMILES | % Inhibition @ 10 uM |
| --- | --- |
| Oc1ccccc1-c1nc(N2CCN(c3ccccc3)CC2)c2ccccc2n1 | 8.06% |
| CCc1ccc(/C=C(/C#N)c2nc(-c3ccc(C)cc3)cs2)cc1 | -4.52% |
| COCCNC(=O)Nc1ccc2c(c1)nc(C)n2C | -2.74% |
| Oc1ccc(-c2nc3ccccc3[nH]2)nn1 | 4.63% |
| CCCCC(=O)Nc1c(-c2ccccc2)nc2ccccn12 | -3.19% |
| O=S(=O)(O)c1ccc2[nH]c(-c3ccccc3)nc2c1 | -2.35% |
| Cc1ccc(-c2noc(-c3ccccn3)n2)cc1 | -7.17% |
| O=C(NCCc1c[nH]c2ccccc12)c1nc(-c2ccc(-n3cccc3)cc2)no1 | 17.2% |
| CN(C(=O)c1ccccc1Cl)c1ccccc1 | 0.135% |
| Cn1cc(S(=O)(=O)N2CCOCC2)cc1C(=O)N1CCOCC1 | -5.01% |
| CC(C)C[C@H](NC(=O)c1ccc2c(c1)CCCC2C)C(=O)NCC#N (some centres unmarked) | -1.82% |
| CC[C@H](NC(=O)[C@H](C)NC(=O)c1ccc(-c2cc(C(=O)O)ccc2Cl)cc1)C(=O)c1nc2ccccc2o1 | -6.56% |
| Cc1ccc(C2=NN(CCC(=O)NCCN(C)Cc3ccccc3)C(=O)CC2)cc1 | -0.0542% |
| CCc1nnc2c(NCc3ccc(C)cc3)nc3ccccc3n12 | 3.5% |
| COc1ccc(OC)c(S(=O)(=O)N2CCN(C(c3ccccc3)c3ccccc3)CC2)c1 | 1.62% |
| O=C(OCCCN1CCOCC1)c1ccc(O)cc1O | 0.774% |
| CCOc1cc(/C=C2\SC(=O)N(CC(=O)Nc3ccc(C)cc3)C2=O)ccc1O | -10.2% |
| COc1ccc(/C=C/C=C2\NC(=S)NC2=O)cc1 | -4.8% |
| COc1ccc(-n2nc3c(c2NC(=O)c2ccco2)CS(=O)(=O)C3)cc1 | 8.06% |
| CCCOc1ccc(CNC(=O)C(C)n2ncn3cccc3c2=O)cc1 (centres unmarked) | -2.45% |
| O=C(CSc1ncc(-c2ccccc2)n1-c1ccccc1)NCc1ccco1 | -2.77% |
| CCCN(CCO)Cc1cccc(Br)c1 | -9.93% |
| COc1ccccc1N(CC(=O)N1CCCC1)S(=O)(=O)c1ccc(C)cc1 | 2.44% |
| C=CCN1C(=O)N/C(=C/c2cc(C)n(-c3ccc(C#N)cc3)c2C)C1=O | 7.67% |
| CN1CSC2=C(C#N)C(c3ccc(Br)cc3)CC(=O)N2C1 (centres unmarked) | 43.4% |
| CCc1nn(CC(=O)N2CCN(CC)CC2)c(=O)c2cccn12 | 0.544% |

| SMILES | % Inhibition @ 10 uM |
| --- | --- |
| COc1ccc(C/N=c2/c(-c3ccc(C)cc3)c(O)c2=O)cc1 | -4.68% |
| CN(C)CCCN1C(=O)C(O)=C(C(=O)c2ccc(S(=O)(=O)N(C)C)cc2)C1c1cccnc1 (centres unmarked) | -3.06% |
| Cc1nc2c3ccccc3n3c(CCCC(=O)NCc4ccc(Cl)cc4)nnc3n2n1 | 0.44% |
| CC(=O)Nc1ccc(NC(=O)C(C)c2cccc(C(=O)c3ccccc3)c2)cc1 (centres unmarked) | 9.01% |
| CCOc1ccc(CNCc2c(C(=O)O)c(C)n(Cc3ccc(F)cc3)c2C)cc1 | -0.23% |
| COc1ccccc1S(=O)(=O)Cc1ccc(C(=O)NC2CCCCCC2)o1 | 0.458% |
| O=C(Nc1nccs1)C1CCN(c2ncnc3c2nc2n3CCCCC2)CC1 | 3.05% |
| CN1CCN(c2ccc(NC(=O)c3cccs3)cc2)CC1 | -3.57% |
| CCOC(=O)c1sc(NC(=O)CSc2nnnn2-c2ccccc2)nc1C | -1.33% |
| Cc1cc(O)n2nc(N3C(=O)c4ccccc4C3=O)nc2n1 | 0.401% |
| Cc1ccc(-c2c(N3CC(C)CC(C)C3)c(=O)c2=O)cc1C (centres unmarked) | 1.14% |
| CCOC(=O)C1CCN(Cc2cccs2)CC1 | -1.77% |
| CC(NC(=O)N(Cc1ccccc1)Cc1ccc2c(c1)OCO2)(C(F)(F)F)C(F)(F)F | 2.09% |
| COc1cccc(/C=C2/NC(=O)N(Cc3ccc(F)cc3)C2=O)c1 | -0.95% |
| O=C(O)/C=C\C(=O)N(c1ccccc1)c1ccc2ccccc2c1 | 0.00773% |
| CCC(=O)NC(c1ccco1)c1c(O)ccc2ccccc12 (centres unmarked) | 4.99% |
| CC1CCCN(C2CCN(C(=O)c3cccc(Cl)c3)CC2)C1 (centres unmarked) | 3.54% |
| O=C(c1cc(-c2ccccc2)c(N2CCCCC2)s1)N1CCN(c2ccccn2)CC1 | -1.04% |
| COc1cc(C(=O)N2CCN(Cc3ccc(C(F)(F)F)cc3)CC2)cc(OC)c1OC | 3.86% |
| Cc1nc(C)c(NC(=O)N2CCOCC2)cc1NC(=O)N1CCOCC1 | 1% |
| O=C(NCc1ccccc1C(F)(F)F)c1ccccn1 | -6.91% |
| CC1CCCC(NS(=O)(=O)c2ccc3[nH]c4c(c3c2)CCCC4)C1C (centres unmarked) | -5.3% |
| CC(C)(C)c1ccc(S(=O)(=O)NCc2ccc(C(=O)NCC3CCCO3)cc2)cc1 (centres unmarked) | 0.389% |
